A word on the inhibition: it is the relative decrease from the control value, in per cent.

In all, about 2,000 compounds went through this assay and about 110 (5.5%) showed an effect of 50% or more. The list shows a part of the results.

This note sets out measurements from ChEMBL document CHEMBL5606460, “ASAP - DENV-2 NS2B-NS3 protease fluorescence single point” (2024).

In the experiment the target is Genome polyprotein (dengue virus type 2) (UniProt P29990).
The mark [1] stands for this setting: Thailand/16681/1984, Concentration 25.0 uM, Number of replicates 1.0.

On to `O=Cc1ccc(N2CCC(C(=O)N3CCc4ccccc4[C@H]3c3ccccc3)CC2)cc1`, for which, under setting [1], the inhibition came out at 15.9%.

Consider `CC[C@H](NC(=O)C1CCN(c2ccc(C=O)cc2)CC1)c1cccc(C)n1`, for which the inhibition under setting [1] worked out at 13.4%.

Turning to `CCn1ccnc(N2CC[C@H](c3ccc(F)cc3)C2)c1=O`, the inhibition (Thailand/16681/1984, Concentration 49.5 uM, Number of replicates 2.0, Standard deviation 1.1108054806137186 %) is 9.05%; the inhibition (Thailand/16681/1984, Concentration 99.01 uM, Number of replicates 2.0, Standard deviation 0.4960879631109318 %) stood at 17.7%; the inhibition (Thailand/16681/1984, Concentration 198.0 uM, Number of replicates 2.0, Standard deviation 0.6975633859845287 %) turned out to be 30.7%.

In the case of `CNC(=O)c1cncnc1NS(=O)(=O)c1ccc(Oc2ccccc2Cl)cc1`, the inhibition was 5.46% (Thailand/16681/1984, Concentration 49.5 uM, Number of replicates 2.0, Standard deviation 1.0127526920144583 %); 5.75% (Thailand/16681/1984, Concentration 99.01 uM, Number of replicates 2.0, Standard deviation 1.3865274661736828 %); 3.56% (Thailand/16681/1984, Concentration 198.0 uM, Number of replicates 2.0, Standard deviation 1.0625889801550739 %).

Turning to `c1ccc2c([C@H]3CCN(CC[C@H]4CCOC4)C3)c[nH]c2c1`, the inhibition by setting is: (Thailand/16681/1984, Concentration 49.5 uM, Number of replicates 2.0, Standard deviation 3.889990756370691 %) -1.18%; (Thailand/16681/1984, Concentration 99.01 uM, Number of replicates 2.0, Standard deviation 3.7250274012431723 %) -0.886%; (Thailand/16681/1984, Concentration 198.0 uM, Number of replicates 2.0, Standard deviation 4.094049612470612 %) -0.046%.

Take `O=Cc1ccc(N2CCC(C(=O)NCCc3ccc(Cl)c(Cl)c3)CC2)cc1`: the inhibition under setting [1] was found to be 11.5%.

As for `NCc1cccc(NC(=O)C2(NC(=O)OCc3ccccc3)CC(F)(F)C2)c1`, the inhibition is -2.94% (Thailand/16681/1984, Concentration 49.5 uM, Number of replicates 2.0, Standard deviation 2.2677200349668407 %); -2.06% (Thailand/16681/1984, Concentration 99.01 uM, Number of replicates 2.0, Standard deviation 0.8839411333719474 %); -2.25% (Thailand/16681/1984, Concentration 198.0 uM, Number of replicates 2.0, Standard deviation 0.8051076448684426 %).

Consider `Cc1cc(CO)c2cccc(NC(=O)CC3CCNCC3)c2n1`, for which the inhibition runs as follows: (Thailand/16681/1984, Concentration 49.95 uM, Number of replicates 2.0, Standard deviation 2.142909982415651 %) 8.3%; (Thailand/16681/1984, Concentration 99.9 uM, Number of replicates 2.0, Standard deviation 0.2007188026491294 %) 53.9%.

For the molecule `NCCOc1cccc2c1CCB(O)O2`, the inhibition is, setting by setting: (Thailand/16681/1984, Concentration 49.5 uM, Number of replicates 2.0, Standard deviation 0.44890068869292293 %) -4.07%; (Thailand/16681/1984, Concentration 99.01 uM, Number of replicates 2.0, Standard deviation 0.9787506376845975 %) -4.53%; (Thailand/16681/1984, Concentration 198.0 uM, Number of replicates 2.0, Standard deviation 0.44105092245146593 %) -3.47%.

On to `CSc1ccc(CNC(=O)C2CCN(c3ccc(C=O)cc3)CC2)cc1`, for which, under setting [1], the inhibition was 3.48%.

Regarding `Cn1ccnc1-c1cc(NC(=O)c2cnn([C@H]3CCCNC3)c2)[nH]n1`, the inhibition was -0.353% (Thailand/16681/1984, Concentration 49.5 uM, Number of replicates 2.0, Standard deviation 0.3048681328854907 %); 0.421% (Thailand/16681/1984, Concentration 99.01 uM, Number of replicates 2.0, Standard deviation 0.7080640467517072 %); 0.702% (Thailand/16681/1984, Concentration 198.0 uM, Number of replicates 2.0, Standard deviation 1.3386104401471322 %).

Regarding `OB(O)c1cccc(-c2noc([C@H]3CCN4CCC[C@H]4C3)n2)c1`, the inhibition was 1.7% (Thailand/16681/1984, Concentration 49.5 uM, Number of replicates 2.0, Standard deviation 10.721987987903457 %); -2.79% (Thailand/16681/1984, Concentration 99.01 uM, Number of replicates 2.0, Standard deviation 0.014886266894047772 %); -4.29% (Thailand/16681/1984, Concentration 198.0 uM, Number of replicates 2.0, Standard deviation 1.9724261487764787 %).

For the molecule `COc1cc(C(=O)N(C)C)nc(N2CCNCC2)n1`, the inhibition is, setting by setting: (Thailand/16681/1984, Concentration 49.5 uM, Number of replicates 2.0, Standard deviation 4.026406870890022 %) -3.23%; (Thailand/16681/1984, Concentration 99.01 uM, Number of replicates 2.0, Standard deviation 2.6098419358385048 %) -4.25%; (Thailand/16681/1984, Concentration 198.0 uM, Number of replicates 2.0, Standard deviation 2.250930669275132 %) -2.7%.

Turning to `Cc1cc(CO)c2cccc(CC(=O)NCC(N)=O)c2n1`, the inhibition was -7.85% (Thailand/16681/1984, Concentration 49.95 uM, Number of replicates 2.0, Standard deviation 1.3653333333441007 %) and -6.61% (Thailand/16681/1984, Concentration 99.9 uM, Number of replicates 2.0, Standard deviation 0.5261932884148693 %).

For `O=Cc1ccc(N2CCC(C(=O)Nc3ccccc3I)CC2)cc1`, the inhibition under setting [1] is 13.5%.

`O=Cc1ccc(N2CCC(C(=O)NCCc3cccc4ccccc34)CC2)cc1`: under setting [1], the inhibition came to 11.1%.

For the molecule `COc1ccc(S(=O)(=O)N[C@H]2CC[C@H](C(=O)Nc3nc4ccccc4s3)CC2)cc1`, the inhibition stood at 3.33% (Thailand/16681/1984, Concentration 49.5 uM, Number of replicates 2.0, Standard deviation 3.075987766242933 %); 4.33% (Thailand/16681/1984, Concentration 99.01 uM, Number of replicates 2.0, Standard deviation 2.9677873652214015 %); 4.36% (Thailand/16681/1984, Concentration 198.0 uM, Number of replicates 2.0, Standard deviation 2.5754934344138842 %).

Consider `c1ccc2c(CN3CCC(c4ccn[nH]4)CC3)c[nH]c2c1`, for which the inhibition (Thailand/16681/1984, Concentration 49.5 uM, Number of replicates 2.0, Standard deviation 1.6296089724183547 %) is 1.05%; the inhibition (Thailand/16681/1984, Concentration 99.01 uM, Number of replicates 2.0, Standard deviation 0.6845016983093661 %) stood at 1.06%; the inhibition (Thailand/16681/1984, Concentration 198.0 uM, Number of replicates 2.0, Standard deviation 0.1575177771632809 %) was 2.42%.

For `Cc1cc(CCNC(=O)[C@]2(c3ccc(F)cc3)CCCNC2)c2cn[nH]c2c1`, the inhibition (Thailand/16681/1984, Concentration 49.5 uM, Number of replicates 2.0, Standard deviation 0.014046825478078263 %) is -0.005%; the inhibition (Thailand/16681/1984, Concentration 99.01 uM, Number of replicates 2.0, Standard deviation 0.7694538976922883 %) turned out to be 1.15%; the inhibition (Thailand/16681/1984, Concentration 198.0 uM, Number of replicates 2.0, Standard deviation 0.5010032971716664 %) amounted to 2.71%.

For `Cc1ccc(OC2CCN(C(=O)C3CCN(c4ccc(C=O)cc4)CC3)CC2)cc1`, the inhibition under setting [1] came to 11.3%.

With `O=Cc1ccc(N2CCC(C(=O)NCc3ccccc3Br)CC2)cc1`, the inhibition under setting [1] is 12.3%.
